Measured values taken from patent EP3970494A1 (priority 2020, dated 2022).

Legend:
Botrytis cinerea = system: Botrytis cinerea
Experimental: (§1) The active compounds were formulated separately as a stock solution having a concentration of 10000 ppm in dimethyl sulfoxide. The stock solutions were mixed according to the ratio, pipetted onto a micro titer plate (MTP) and diluted with water to the stated concentrations.
(§2) After the addition of the respective fungal spore suspensions as described below, the plates were placed in a water vapor-saturated chamber at a temperature of 18 °C. Using an absorption photometer, the MTPs were measured at 405 nm 7 days after the inoculation.
Use example 3. Activity against the grey mold Botrytis cinerea (BOTRCI)
A spore suspension of Botriytis cinerea in an aqueous biomalt or yeast-bactopeptone-sodiumacetate solution was used.
(§3) The measured parameters were compared to the growth of the active compound-free control variant (100%) and the fungus-free blank value to determine the relative growth in % of the pathogens in the respective active compounds.

Fusarium culmorum = system: Fusarium culmorum
Experimental: as §1, §2
Use example 6. Activity against Fusarium culmorum (FUSACU)
A spore suspension of Fusarium culmorum in an aqueous biomalt or yeast-bactopeptone-glycerine or DOB solution was used.
as §3

Septoria tritici = system: Septoria tritici
Experimental: as §1, §2
Use example 4. Activity against wheat leaf blotch pathogen Septoria tritici (SEPTTR)
A spore suspension of Septoria tritici in an aqueous biomalt or yeast-bactopeptone-glycerine or DOB solution was used.
as §3

| Compound | Fungal growth at 31 ppm (%) BOTRCI (Botrytis cinerea) [%] | Fungal growth at 31 ppm (%) FUSACU (Fusarium culmorum) [%] | Fungal growth at 31 ppm (%) SEPTTR (Septoria tritici) [%] |
| --- | --- | --- | --- |
| CNC(=O)/C(=N/OC)c1cccc(C)c1CO/N=C(\C)c1cc(/C(C)=N/OC)ccn1 [Example 30, (2E)-2-Methoxyimino-2-[2-[[(E)-1-[4-[(E)-N-methoxy-C-methyl-carbonimidoyl]-2-pyridyl]ethylideneamino]oxymethyl]-3-methyl-phenyl]-N-methyl-acetamide] | 18 |  |  |
| CO/N=C(/C(=O)OC)c1cccc(C)c1CO/N=C(\C)c1cc(C(F)(F)F)nn1C [Example 117, Methyl (2E)-2-methoxyimino-2-[3-methyl-2-[[(E)-1-[2-methyl-5-(trifluoromethyl)pyrazol-3-yl]ethylideneamino]oxymethyl]phenyl]acetate] | 18 |  |  |
| CO/N=C(\C)c1ccnc(/C(C)=N/OCc2c(C)cccc2/C(=N\OC)C(=O)OC)c1 [Example 29, Methyl (2E)-2-methoxyimino-2-[2-[[(E)-1-[4-[(E)-N-methoxy-C-methyl-carbonimidoyl]-2-pyridyl]ethylideneamino]oxymethyl]-3-methyl-phenyl]acetate] | 14 |  |  |
| CO/N=C(/C(=O)OC)c1cccc(C)c1CO/N=C(\C)c1cc(C(F)(F)F)cc(C)n1 [Example 46] | 0 |  |  |
| (2E)-2-methoxyimino-N-methyl-2-[3-methyl-2-[[(E)-1-[4-(trifluoromethyl)-6-vinyl-2-pyridyl]ethylideneamino]oxymethyl]phenyl]acetamide [Example 114] | 0 | 1 | 0 |
| CO/N=C(/C(=O)OC)c1cccc(C)c1CO/N=C(\C)c1cc(C(F)(F)F)ncn1 [Example 113, Methyl (2E)-2-methoxyimino-2-[3-methyl-2-[[(E)-1-[6-(trifluoromethyl)pyrimidin-4-yl]ethylideneamino]oxymethyl]phenyl]acetate] | 0 |  |  |
| (2E)-2-methoxvimino-N-methyl-2-[3-methyl-2-[[(E)-1-[2-methyl-5-(trifluoromethyl)pyrazol-3-yl]ethylideneamino]oxymethyl]phenyl]acetamide [Example 118] |  |  | 0 |
| CO/N=C(/C(=O)OC)c1cccc(C)c1CO/N=C(\C)c1cnc(C)c(F)c1 [Example 100] |  | 20 |  |
